# Test results: article PMC4336329 (PLoS ONE, 2015)
# In all, about 310,000 compounds went through this assay and about 14,000 (4.5%) showed an effect of 50% or more. Effects have a minus sign here. This is one part of the list.
# Target: human ether-à-go-go-related gene (hERG) potassium channel (human, UniProt Q12809)
# Test: primary screen, population patch clamp on CHO cells stably expressing hERG
# 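Further: peak tail current of the secondary pulse compared with the same well before compound.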
# Chain of human ether-à-go-go-related gene (hERG) potassium channel (Q12809 whole entry, looked up): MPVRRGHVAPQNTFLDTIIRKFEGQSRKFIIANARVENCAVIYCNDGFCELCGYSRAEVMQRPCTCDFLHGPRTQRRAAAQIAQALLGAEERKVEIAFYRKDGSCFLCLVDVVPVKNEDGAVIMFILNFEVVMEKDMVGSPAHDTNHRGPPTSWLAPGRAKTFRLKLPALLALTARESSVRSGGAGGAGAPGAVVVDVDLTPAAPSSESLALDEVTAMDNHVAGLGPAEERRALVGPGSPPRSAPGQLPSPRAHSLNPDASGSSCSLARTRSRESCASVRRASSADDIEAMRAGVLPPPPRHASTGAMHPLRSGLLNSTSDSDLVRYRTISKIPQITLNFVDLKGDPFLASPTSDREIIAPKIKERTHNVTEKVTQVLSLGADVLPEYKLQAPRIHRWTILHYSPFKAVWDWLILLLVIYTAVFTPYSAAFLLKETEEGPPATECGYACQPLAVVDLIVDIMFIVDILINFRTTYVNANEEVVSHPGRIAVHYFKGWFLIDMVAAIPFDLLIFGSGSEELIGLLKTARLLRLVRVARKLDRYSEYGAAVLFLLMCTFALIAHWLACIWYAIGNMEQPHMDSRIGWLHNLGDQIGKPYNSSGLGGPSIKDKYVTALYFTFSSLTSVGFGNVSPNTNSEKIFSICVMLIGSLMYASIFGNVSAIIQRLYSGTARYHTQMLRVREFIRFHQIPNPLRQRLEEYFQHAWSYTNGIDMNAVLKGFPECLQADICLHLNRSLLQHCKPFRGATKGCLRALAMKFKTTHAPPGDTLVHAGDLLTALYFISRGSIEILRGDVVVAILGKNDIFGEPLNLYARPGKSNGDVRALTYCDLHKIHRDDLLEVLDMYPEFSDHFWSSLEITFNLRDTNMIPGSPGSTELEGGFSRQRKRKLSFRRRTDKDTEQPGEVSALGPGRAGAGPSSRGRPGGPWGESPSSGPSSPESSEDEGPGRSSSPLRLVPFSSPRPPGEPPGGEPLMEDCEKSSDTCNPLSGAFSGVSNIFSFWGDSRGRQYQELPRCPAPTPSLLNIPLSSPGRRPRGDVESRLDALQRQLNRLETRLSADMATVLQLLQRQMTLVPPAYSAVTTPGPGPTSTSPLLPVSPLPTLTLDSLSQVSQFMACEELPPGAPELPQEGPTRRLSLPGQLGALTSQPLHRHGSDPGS
row,SMILES,"hERG current change (%, negative = inhibition) at 10uM [%]"
1,Cc1cc(C(=O)NP(=O)(N2CC(C)OC(C)C2)N2CC(C)OC(C)C2)c(C)n1C1CC1 (stereo not drawn),13.8
2,Cc1ccc(C(=O)NCCc2c[nH]c3ccccc23)s1,4.38
3,O=C(CCc1ccccc1)N1CCCC(Nc2ccc(F)cc2)C1 (stereo not drawn),-34
4,CCOCCCNC(=O)Cn1nc(-c2ccccc2)ccc1=O,2.14
5,Cc1ccc(OCC(=O)Nc2ccc([N+](=O)[O-])cn2)cc1C,10.3
6,CCCCn1c(=O)nc2n(-c3ccccc3C)c3ccccc3cc-2c1=O,-22.5
7,CCn1cc(Br)c(C(=O)Nc2ccccc2C(=O)OC)n1,-25.2
8,COc1ccc2c(c1)OC13CCCCC1C2C(C(=O)c1ccccc1)C(=O)N3 (stereo not drawn),2.72
9,O=C(c1ccc(N2CCCCCC2)c([N+](=O)[O-])c1)N1CCc2ccccc21,4.17
10,CC(C)CN(C(=O)CN1C(=O)NC(c2ccccc2)(c2ccccc2)C1=O)C1CCS(=O)(=O)C1 (stereo not drawn),-34.1
11,CN(CCc1ccccn1)C(=S)NC(=O)c1ccco1,17.1
12,CC(=O)c1cccc(S(=O)(=O)N2CCC(n3nnc4cc(F)ccc43)CC2)c1,-63.7
13,O=C(CCc1nnc(CCCc2ccccc2)o1)NCCCC1CCCC1,-1.45
14,O=C(CN1CCCCCC1)NCCN1C(=O)S/C(=C\c2ccccc2Cl)C1=O,-9.34
15,O=C1c2ccccc2NC(c2ccc(-c3cccc(Cl)c3)o2)N1O (stereo not drawn),-6.77
16,CCc1nnc(NC(=O)CCC(=O)NC2CCCCCCC2)s1,13.8
17,CCS(=O)(=O)c1ccc2oc(SCC(=O)NCCc3ccccc3)nc2c1,-13.8
18,O=C(O)CCC(=O)Nc1ccccc1C(=O)NCCc1ccccc1,13.2
19,C/C(=C\c1ccc(C)o1)C(=O)c1c(C)cc(C)[nH]c1=O,11.5
20,CCOc1ccc(N=Nc2c(C)noc2C)cc1,15.2
21,O=C(COc1ncnc2ccccc12)c1ccc2c(c1)OCCO2,9.19
22,O=C(CSc1nnc(Cn2c(=O)sc3ccccc32)n1-c1ccccc1)N1CCCCCC1,-12.5
23,Nn1c(SCC(=O)Nc2ccc3c(c2)OCCO3)nnc1C(F)(F)F,11.6

row,SMILES,"hERG current change (%, negative = inhibition) at 10uM [%]"
1,Cc1noc(C)c1C(=O)OCC(=O)Nc1ccc(S(N)(=O)=O)cc1,-14.9
2,Cc1ccc(CCNC(=O)C2CCCN(S(=O)(=O)N3CC(C)CC(C)C3)C2)cc1 (stereo not drawn),21.5
3,CCC(=O)c1ccc(OCC(=O)Nc2ccccc2C(=O)N2CCCCC2)cc1,2.77
4,COc1ccc(N(CC(=O)Nc2ccc(S(=O)(=O)N3CCOCC3)cc2)S(=O)(=O)c2ccc(F)cc2)cc1,4.34
5,CSCC[C@H](NC(=O)COc1ccc(Cl)cc1Cl)c1nc2ccccc2[nH]1,14.7
6,CCOc1ccc(C(=O)OCCCN(C)C)cc1,-14.4
7,CC1(C)OC(=O)C(=NNc2ccc(O)cc2)C(=O)O1,15.1
8,O=S(=O)(c1ccc(NCC2CCCCC2)nc1)N1CCOCC1,-16.6
9,Cc1ccc(NC(=O)CNC2CCCCC2)cc1Cl,6.64
10,O=C(CCc1ccccc1)Nc1ccc(NC(=O)c2ccco2)nc1,-2.8
11,Cc1ccc(NC2=C/C(=N\S(=O)(=O)c3cccs3)c3ccccc3C2=O)c(C)c1,4.7
12,O=C1CC(SC(=Nc2ccccc2)Nc2ccccc2)C(=O)N1c1cccc(Cl)c1 (stereo not drawn),-5.58
13,O=C(CNC(=S)N(Cc1ccccc1Cl)C1CCCC1)NCCN1CCOCC1,-9.19
14,CC(C)OC(=O)CSc1nnc(-c2cnccn2)n1C,7.97
15,CCOc1ccc2c(c1)c(N=NC(=N)N)c(O)n2C,-6.2
16,Cc1nc(NC(=O)COC(=O)CCc2nc3ccccc3s2)c(Cl)cc1Cl,22.4
17,NS(=O)(=O)c1ccc(NC(=O)CSc2ncn[nH]2)cc1,10.7
18,O=C(NNc1ccc(Cl)cc1)C1CCC1,16.6
19,O=C(NCCCN1CCOCC1)c1cc2c(s1)CSC2,3.93
20,C#CCOC(=O)c1csc2nnsc12,-6.28
21,CCOC(=O)N1CCN(c2c(NCCc3ccc(OCC)c(OCC)c3)c(=O)c2=O)CC1,-4.22
22,CCn1c(SCC(=O)Nc2ccc(OC)c(OC)c2)nnc1-c1cccs1,-14.1
23,CCc1ccc(NC(=O)C(C)Sc2ccc(S(=O)(=O)N3CCN(C)CC3)cn2)cc1 (stereo not drawn),-29.4

row,SMILES,"hERG current change (%, negative = inhibition) at 10uM [%]"
1,CC(=Nc1ccccc1)Nc1ccccc1,-4.05
2,CCCC1=Nc2cc(C(=O)NCCCN3CCOCC3)ccc2Sc2ccccc21,-9.32
3,CCOC(=O)c1c(C)[nH]c(C(=O)NNC(=O)c2ccc(C(C)(C)C)cc2)c1C,-2.61
4,Oc1ccc(Oc2ncc(Cl)cc2Cl)cc1,-12.5
5,N#CC1=C(N)N(c2ccccc2C#N)C2=C(C(=O)CCC2)C1c1ccsc1 (stereo not drawn),-19.5
6,COc1ccc2c(c1)SC1=NCCS(=O)(=O)N12,0.987
7,COc1cc(NC(=O)c2ccc(Cl)cc2Cl)ccc1-c1cc2ccccc2oc1=O,-5.94
8,COc1ccc(C(=O)N2CCOC2CNC(=O)C(=O)NCCc2ccc(OC)c(OC)c2)cc1 (stereo not drawn),-8.61
9,CCN(CC)CCNC(=O)NC1CCCCC1,20.3
10,Cc1cc(C)c(NC(=S)N(CCN(C)C)Cc2cccs2)c(C)c1,-13.4
11,COc1ccc(OC)c(-n2nnnc2SCC(=O)Nc2ccc3c(c2)OCCO3)c1,13.2
12,CC(C)CCNC(=O)c1onc(CSc2ccc(F)c(F)c2)c1C(=O)NCCC(C)C,5.79
13,COc1ccc(/C=N/NC(=O)c2ccc(Br)o2)cc1Cn1cc([N+](=O)[O-])cn1,-39.1
14,CCCc1cc(=O)[nH]c(Nc2ccc(Cl)cc2)n1,6.28
15,CC(=O)Nc1cccc(C(=O)OCC(=O)c2ccc3c(c2)OCO3)c1,7.2
16,Nc1nc2ccc(C(=O)NC3CCCCC3)cc2s1,5.84
17,O=C(Nc1nnc(-c2ccc3c(c2)CCCC3)o1)c1c(F)cccc1F,0.248
18,CCCNS(=O)(=O)c1ccc(CCC(=O)N2CCN(CC)CC2)cc1,-1.72
19,CCOc1ccc(N(C)S(=O)(=O)c2ccc(C)c(C(=O)NCc3cccs3)c2)cc1,-7.89
20,CCC(C(=O)Nc1ncc(C)s1)c1ccccc1 (stereo not drawn),31.4
21,CCOC(=O)N1CCC(=NNC(=O)COc2cccc(C)c2)CC1,7.01
22,COc1ccc(CCNC(=O)c2cc3c(=O)n(C)c4ccccc4c3n2C)c(OC)c1,3.27
23,COc1ccc(C(=S)Nc2ccc(N(C)C)cc2)cc1,16.6

row,SMILES,"hERG current change (%, negative = inhibition) at 10uM [%]"
1,COc1ccc(C2=NS(=O)(=O)N(C)C(C(=O)NC3CCCCC3)=C2)cc1OC,-9.09
2,O=C(COc1ccc(Cl)cc1Cl)NC(=O)N1CCCCC1,-24.1
3,Cc1ccccc1-n1nc2c(c1NC(=O)C(C)C)CS(=O)(=O)C2,25.5
4,O=C(CCc1c[nH]c2ccccc12)Nc1ccc(S(=O)(=O)Nc2ncccn2)cc1,10.1
5,O=[N+]([O-])c1cc2c(c(CSc3ncccn3)c1)OCOC2,21.7
6,O=C(OCc1nc2ccccc2s1)c1cc2ccccc2oc1=O,0.991
7,COCC(=O)Nc1c(C(=O)Nc2cccc(OC)c2)oc2ccccc12,13.9
8,CSc1ccc(CN(C)CC(=O)Nc2ccc(NC(C)=O)cc2)cc1,-25.8
9,Cc1[nH]c(C)c(S(=O)(=O)N2CCc3ccccc32)c1C(=O)N1CCCCC1,14.6
10,CC(Oc1ccc(Br)cc1Cl)C(=O)Nc1ccncc1 (stereo not drawn),-29.7
11,COc1ccc(CC(=O)Nc2ccc(C#N)c(Cl)c2)cc1S(=O)(=O)N1CCOCC1,-68.1
12,CCCn1c(N)c(C(=O)CN(C)CC(=O)Nc2ccccc2CC)c(=O)[nH]c1=O,-42
13,COCCn1c(-c2ccc(F)cc2)nc2oc3cc(OC)ccc3c(=O)c2c1=O,-19.6
14,O=C1C(C=NC2CC2)=C(O)c2ccccc21,6.75
15,Cc1ccc(-n2c(SCC(N)=O)nnc2-c2ccc(S(=O)(=O)N3CCCCC3)cc2)c(C)c1,-52.7
16,CCOC(=O)CCCNC(=O)CN1C(=O)NC(c2ccccc2)(c2ccccc2)C1=O,-17.9
17,Cc1nnc(NC(=O)c2ccc(-c3ccc([N+](=O)[O-])cc3)o2)s1,-11.7
18,CCOP(=O)(OCC)/C(C#N)=C(\O)c1ccc(OC)cc1,-4.25
19,Cc1cc(C)n(-c2c(F)c(F)c(CN3CCCCC3)c(F)c2F)n1,3
20,CCn1c(-c2ccc(Cl)cc2)n[nH]c1=S,13.2
21,CSCCC(NC(=O)c1cc(C(C)(C)C)oc1C)C(=O)O (stereo not drawn),14
